Reference: ChEMBL document CHEMBL4888484, “Replenishing the malaria drug discovery pipeline: Screening and hit evaluation of the MMV Hit Generation Library 1 (HGL1) against asexual blood stage Plasmodium falciparum ,using a nano luciferase reporter read-out” (2022)
The whole screen tested about 150,000 compounds, of which about 540 (0.36%) showed an effect of 50% or more. The list shows a part of the results.

Each molecule was assayed on Plasmodium falciparum (assay: Primary screen in NF54 nanoGlo assay, in single point, at 2uM, 72h; a lower Z score goes with more inhibition). Conditions: timepoint 72 hour.
Assay type: functional, Erythrocyte

| SMILES | % Inhibition [%] | Z score |
| --- | --- | --- |
| Cc1cc(CC(=O)NC(Cc2ccccn2)[C@H]2C[C@H](O)C2)on1 (some centres undefined) | -19 | 2.49 |
| CC[C@H](C)CN1C(=O)CNC12CCN(C(=O)c1ccc(OC)cc1)CC2 | -12 | 1.62 |
| CC(=O)N(Cc1ccccc1)c1ccc2c(c1)nc(Cn1nc(C)cc1C)n2C | 35 | -4.52 |
| C=CCCC(=O)N1CCC(c2ncc(C)s2)CC1 | 7 | -0.87 |
| CC1CC1C(=O)N(CC(=O)O)C1CCCCC1 (centres undefined) | -3 | 0.44 |
| COCc1nc([C@@H]2CCCCCN2S(=O)(=O)c2ccccc2F)no1 | 10 | -1.64 |
| COCC(COC)N1CCN(C(=O)[C@@H]2Cc3c(C)cccc3O2)CC1 | -16 | 2.17 |
| Cc1nnc(C(C)N2CCCC2Cn2cccn2)o1 (centres undefined) | -18 | 2.07 |
| CCOc1ccc(NC(=O)NC(C)(C)c2cn(-c3ccccc3)nn2)cn1 | -2 | 0.25 |
| O=C(N1CC[C@H]1C1CCCC1)C12CC(C(F)(F)F)(C1)C2 | -3 | 0.57 |
| Cc1cc([C@@H](C#N)c2ccc(Cl)cc2)c(Cl)cc1NC(=O)CS(=O)(=O)c1ccccc1 | -1 | 0.15 |
| Oc1cc(CNCCc2cnccn2)nc2c(F)cccc12 | -8 | 0.97 |
| Cc1cc(CNC(=O)c2ccc(-c3ccco3)[nH]c2=O)no1 | -8 | 1.02 |
| COCCNC(=O)NCC(C)(C)c1ccsc1 | -3 | 0.63 |
| Cn1nc(C(=O)N2CC(n3cc(-c4ccccc4)nn3)C2)ccc1=O | -15 | 2.6 |
| COc1cc(CN2C(C)CC(O)CC2C)sn1 (centres undefined) | -7 | 1.4 |
| Cc1nc(C)n(C2CN(S(=O)(=O)CC[C@H]3C[C@@H]3C3CC3)C2)n1 | -3 | 0.39 |
| C=CCc1cc(C(=O)N[C@H](C(=O)O)C2CC2)ccc1OC | -12 | 1.49 |
| CC(C)(C)CC(=O)N1CCC[C@H]1C(=O)N[C@H]1CC[C@H](NC(=O)c2ccccc2)CC1 | -3 | 0.3 |
| COCCN1C[C@@H](C(=O)N2CCN(c3ncccn3)CC2)CCC1=O | -11 | 1.42 |
| COc1ccc(C2Nc3ccc(C)cc3[C@H]3OCC[C@@H]23)cc1 (some centres undefined) | -3 | 0.48 |

| SMILES | % Inhibition [%] | Z score |
| --- | --- | --- |
| CC(C)(C)NC(=O)N(CC(=O)N1CCn2cccc2[C@H]1c1ccc(Cl)cc1)C1CC1 | -7 | 0.92 |
| O=C1[C@@H]2C[C@H](F)CN2C(=O)N1CCc1cscn1 | 5 | -0.52 |
| CCN(CC)CCOC(=O)c1cccc(C)c1N | 2 | -0.24 |
| CCOc1ccc(CNC(=O)c2nc(-c3oc4ccc(C)cc4c3C)no2)cc1OC | -9 | 1.33 |
| Cc1cnc(C(=O)NC2CCC3(CC2)COC3)c(C)c1 | 3 | -0.49 |
| CCC(C)C(=O)NCc1csc(NC(=O)C(C)CC)n1 (centres undefined) | -1 | 0.18 |
| COC(=O)[C@]1(F)CCN(C(=O)c2n[nH]c3ccccc23)C1 | -4 | 0.31 |
| Cc1cccc(CN2[C@H](CNC(=O)c3ccncc3F)CN(C)C(=O)[C@@H]2C)c1 | -9 | 1.28 |
| Cc1onc(C(=O)N2CC[C@H]3[C@H](CCC(=O)N3CC(C)C)C2)c1CO | -2 | 0.34 |
| CCOc1cc(CNC(=O)[C@H]2CCCN(C(=O)c3ccccc3Cl)C2)cc(OCC)c1OCC | -6 | 1.03 |
| CCN(Cc1cccc(C)c1)CN1C(=O)N[C@@]2(CCCCc3ccccc32)C1=O | -8 | 1.13 |
| Cc1csc(NC(=O)CC[C@H]2CCCO2)n1 | -8 | 1.19 |
| O=C(NCCc1cccs1)C1CCN(S(=O)(=O)N2CCCC2)CC1 | -18 | 3.4 |
| Cc1ccccc1OCC(=O)Nc1ccc(C(=O)N2CCCCC2)cc1 | -12 | 1.1 |
| CCC1(CC)CN(Cc2nc(C)c(C)n2C)CCO1 | 0 | 0.01 |
| Cc1nccc(N2CC[C@@H](C)O[C@@H](C)C2)n1 | 10 | -1.26 |
| OC[C@@H]1CCCN1Cc1ncc(-c2ccccc2)s1 | -2 | 0.17 |
| COc1ccccc1N1CCN(C(=O)CN2C(=O)CCc3cc(Br)ccc32)CC1 | -1 | 0.09 |
| CC(C)(C)n1ncc2c(=O)[nH]c(NCC3CCCC(O)C3)nc21 (centres undefined) | -11 | 1.34 |
| Cc1ccc(N2CCN(CC(=O)N3CCN(c4ccccc4O)CC3)C2=O)cc1 | -11 | 1.24 |
| CC1CCN(C(=O)CN2C(=O)COc3ccc(S(=O)(=O)N4CCOCC4)cc32)CC1 | 3 | -0.27 |
